For 109 sequences, binding signal results are on record in PMC5836133.

The other results are listed elsewhere or left out. At the low end of the ranking the order means little.

The assay has as its system T1, GST-NbGlk1(82-244).
T1 sequence: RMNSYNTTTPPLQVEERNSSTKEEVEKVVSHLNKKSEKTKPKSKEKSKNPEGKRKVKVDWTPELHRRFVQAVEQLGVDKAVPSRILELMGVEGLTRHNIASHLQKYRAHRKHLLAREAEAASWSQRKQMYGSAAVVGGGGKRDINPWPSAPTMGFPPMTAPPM
Put plainly: protein-binding microarray.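 Note: rank-based score ranging −0.5 to +0.5 with E above 0.45 taken as significant binding.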 Conditions: NbGlk1 is a Golden2-like transcription factor of Nicotiana benthamiana; high values mean tight binding; most listed sequences are background and not binding sites; double strand, one strand shown.
In turn, AATGGCAT registered a binding signal of -0.211 E-score. In turn, AGCAGATA returned a binding signal of 0.259 E-score.

AGTACGTA gave a binding signal of 0.00602 E-score.

The sequence ACTAGTTA returned a binding signal of -0.0683 E-score. Regarding AAGTCCCA, the binding signal is -0.262 E-score. For the sequence AAAGCCCC, the binding signal was -0.361 E-score.

For the sequence AGAAACAT, the binding signal came out at 0.0809 E-score. On to ACAGTTAG, for which the binding signal is -0.0445 E-score.

In turn, ATCGAAGG displayed a binding signal of 0.0131 E-score. AAGGTGCA had a binding signal of -0.148 E-score.

ACATTTGA displayed a binding signal of 0.013 E-score. The sequence AACTACTA gave a binding signal of 0.107 E-score.

AAGTGAAG: the binding signal is -0.196 E-score.

In turn, ACCAGCCT returned a binding signal of -0.122 E-score. Sequence ATCTCAAG displayed a binding signal of 0.256 E-score.

In turn, AGATCAGG displayed a binding signal of 0.199 E-score. For the sequence CAAATTGA, the binding signal was 0.0183 E-score. The sequence AGGCTCAG showed a binding signal of -0.183 E-score. In turn, CAAGGCAG gave a binding signal of -0.0717 E-score.

For ACTACCGA, the binding signal was found to be 0.0202 E-score. For ATTTTACC, the binding signal was found to be 0.148 E-score. Sequence ATTTTCGC returned a binding signal of 0.186 E-score. For the sequence AAAGGTAC, the binding signal was -0.147 E-score. For the sequence AACTATTA, the binding signal is 0.0421 E-score. Regarding ACAGTAGG, the binding signal is -0.0203 E-score. On to AGACCAAT, for which the binding signal was -0.0539 E-score. Regarding ACATCTAA, the binding signal was 0.155 E-score. With AGGTTCCC, the binding signal was -0.231 E-score. ATGTTATG: the binding signal was -0.0213 E-score. Then ATGGGAAT, with 0.296 E-score; and ACTGCTCG, with 0.00881 E-score. For ACTTGCAC, the binding signal is -0.0718 E-score.

On to AATGCATT, for which the binding signal came to 0.0368 E-score. ATGGTCGC: the binding signal is -0.155 E-score. The sequence CACCTTTC showed a binding signal of -0.14 E-score.

ACAGACAA displayed a binding signal of 0.111 E-score.

For ATTGGGAC, the binding signal is -0.0364 E-score. ATATCCCC: the binding signal turned out to be 0.36 E-score. ATACGTCA: the binding signal was 0.0405 E-score. Sequence ACGTCTTA yielded a binding signal of -0.0459 E-score. With CACGGCAG, the binding signal is -0.147 E-score. AATCACGT gave a binding signal of 0.304 E-score. The sequence AGTTGGAC returned a binding signal of -0.301 E-score. Regarding AGTCTAAT, the binding signal is -0.087 E-score. For the sequence AGACTGCG, the binding signal is -0.111 E-score.

Consider CAGATCAA, for which the binding signal turned out to be 0.00768 E-score. The sequence AGTCATTA had a binding signal of -0.0127 E-score. Then AGTGGGAA, with -0.123 E-score; and CACAGGTC, with -0.215 E-score.

AACACGTC had a binding signal of -0.104 E-score.

Take AGCTGTGG: the binding signal is -0.269 E-score. Under ATCGTCCC stands 0.0736 E-score; under AACCGTAG, -0.185 E-score; under CAATTACG, 0.18 E-score. Regarding AATTATCA, the binding signal amounted to 0.0622 E-score. Under ACGATCCG stands 0.223 E-score. As for AAACGGCC, the binding signal is -0.164 E-score. In turn, AACTGCGG displayed a binding signal of 0.0269 E-score. Under AAAGTTGA stands 0.0552 E-score; under ATATGGAT, 0.316 E-score. Under ACTGTAAC stands -0.0715 E-score; under AACTTTGA, -0.0965 E-score. Sequence AACGGCTG showed a binding signal of -0.192 E-score. AAGTTTAT returned a binding signal of -0.0134 E-score. As to AGGCAGCA, the binding signal is -0.07 E-score.

In turn, AAGACTCG had a binding signal of -0.0955 E-score.

In turn, ACAAAAAT gave a binding signal of 0.238 E-score. In turn, AGATAGTC came in with a binding signal of 0.00315 E-score. For ACCCAATG, the binding signal was -0.0983 E-score. In the case of AGTAGAAT, the binding signal amounted to 0.267 E-score. The sequence AACCTGAA displayed a binding signal of 0.0483 E-score.

In the case of AGAGTTAT, the binding signal was determined as 0.0292 E-score. As for AAGAACGG, the binding signal is -0.123 E-score. AAGATGGC yielded a binding signal of -0.0665 E-score.

ACCCAACA: the binding signal was -0.109 E-score. For CAAGTTAC, the binding signal is -0.0377 E-score. ATTCCGAA had a binding signal of 0.183 E-score. The sequence CAATCTTC returned a binding signal of 0.294 E-score. As to AAGGCGGG, the binding signal was -0.0985 E-score.

AAGCAGCA gave a binding signal of -0.0683 E-score. The sequence ATATGTGG had a binding signal of 0.149 E-score. On to AATTGACG, for which the binding signal came to 0.0464 E-score.

For ACGATTGA, the binding signal came out at 0.0146 E-score. AGGTTAAT displayed a binding signal of -0.0119 E-score.

AGAATCCG showed a binding signal of 0.478 E-score.

For AAGTGTCG, the binding signal was determined as 0.0825 E-score.

In turn, AGCTATGG showed a binding signal of -0.147 E-score. Sequence AACTGTCA returned a binding signal of -0.0168 E-score. Sequence ATTCTGCG registered a binding signal of 0.217 E-score. AACTTTTA gave a binding signal of -0.0292 E-score. Turning to CAGAATGG, the binding signal is -0.122 E-score. AACAACCC showed a binding signal of -0.117 E-score. Then AACTGGAC, with -0.0886 E-score. ATACTTGG had a binding signal of 0.0374 E-score. Regarding AATAGGGC, the binding signal was -0.0947 E-score. As for AGCCGGAC, the binding signal was -0.253 E-score. As to AACGATAC, the binding signal was -0.0331 E-score. Sequence AGCCTAAT displayed a binding signal of -0.142 E-score.

For AACTCCAC, the binding signal is -0.198 E-score. As to AGAGGTAG, the binding signal was -0.183 E-score. Then AGTGCTGC, with -0.219 E-score; and CACTGACC, with -0.133 E-score; and AAGTCTTA, with 0.128 E-score.

ACTCTGTG had a binding signal of -0.0988 E-score. In turn, ACACCGCT came in with a binding signal of -0.0746 E-score. As to AATACGAT, the binding signal was 0.294 E-score. For CAAGTAAG, the binding signal was -0.0631 E-score. Consider AAATGGGG, for which the binding signal was -0.00232 E-score. In turn, AGGTGACC yielded a binding signal of -0.26 E-score.
